Reference: patent publication US12616203B2, “Use of 3-isoxazolidinones compounds as selective herbicides” (FMC Corporation, priority 2014, dated 2026)

Test system: weeds; Oilseed rape
Test: Ex12 PRE greenhouse
Format: in vivo
Details: 28 DAT, rate in the words
Experimental: The tested weeds include: wild buckwheat (Polygonum convolvulus, POLCO), velvetleaf (Abutilon theophrasti, ABUTH), cheat (Bromus secalinus, BROSE), wild oat (Avena fatua, AVEFA), radish (Raphanus sativus, RAPSN), corn poppy (Papaver rhoeas, PAPRH), yellow foxtail (Setaria pumila, SETLU), Italian ryegrass (Lolium perenne ssp. multiflorum, LOLMU). The tested crop was Oilseed rape.
This greenhouse study was conducted to assess the preemergence (PRE) weed control and oilseed rape tolerance with 2,4 DC (CS 36.7%) and dimethenamid-P (Outlook®, 63.9%) tank-mix combinations.
Metazachlor (Butisan, 43.1%) plus dimethenamid-P applied as tank mix at 500 g each was applied as commercial standard. Treatments were replicated 3 times and flats were watered after planting but before the treatment and then lightly watered after treatment application. Thereafter flats were watered and fertilized routinely.

Compound | weed control / crop safety in words
CC1(C)CON(Cc2ccc(Cl)cc2Cl)C1=O [2,4-DC, 2-(2,4-dichlorophenyl)methyl-4,4-dimethyl-3-isoxazolidinone] | alone at all rates did not control any weed species
COC[C@H](C)N(C(=O)CCl)c1c(C)csc1C [Dimethenamid-P, dimethenamid-P, reference compound] | alone at all three rates controlled cheat, corn poppy, yellow foxtail, and Italian ryegrass
